Test results published in article PMC5027273.
No constants are given. Whether binding was seen depends on the method and setting. For some assays here: In cells and extracts the contact can be indirect. Some entries that bind do so weakly or less than the wild type. For some assays here: Tags and fused reporters may be left off the sequences shown. One block for each substance: values may come before it.

Chains of the proteins cited; added tags and fusions are not shown. Lines headed by an entry give the natural chain unless they say otherwise; changes in a name come on top.
UniProt Q24JK1: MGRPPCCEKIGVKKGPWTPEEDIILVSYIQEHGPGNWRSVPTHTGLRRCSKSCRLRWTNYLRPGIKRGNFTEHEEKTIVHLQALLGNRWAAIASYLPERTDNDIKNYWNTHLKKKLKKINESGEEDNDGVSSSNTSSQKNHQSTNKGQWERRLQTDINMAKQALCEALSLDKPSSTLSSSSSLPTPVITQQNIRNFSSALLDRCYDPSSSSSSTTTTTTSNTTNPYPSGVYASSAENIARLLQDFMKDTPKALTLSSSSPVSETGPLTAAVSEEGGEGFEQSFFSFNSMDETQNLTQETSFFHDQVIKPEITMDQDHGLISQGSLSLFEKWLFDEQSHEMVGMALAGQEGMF

What was measured:
[1] = target: T1, GAL4 DNA-binding domain (BD)-MIEL1 fusion (MYB30-… E3 LIGASE 1) (Arabidopsis thaliana) (UniProt Q8VZK0); assay: two-hybrid; BD Matchmaker system, yeast AH109; BD-MIEL1 co-expressed with AD-MYB96; cell growth on selective media (-LWHA)
T1 sequence: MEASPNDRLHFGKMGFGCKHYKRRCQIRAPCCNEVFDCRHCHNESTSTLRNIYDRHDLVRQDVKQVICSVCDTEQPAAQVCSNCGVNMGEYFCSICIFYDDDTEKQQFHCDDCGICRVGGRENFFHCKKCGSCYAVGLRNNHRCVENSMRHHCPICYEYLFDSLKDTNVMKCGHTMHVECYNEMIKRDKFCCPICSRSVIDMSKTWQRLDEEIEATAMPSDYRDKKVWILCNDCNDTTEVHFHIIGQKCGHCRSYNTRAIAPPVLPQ

[2] = target: T2, N-terminal region of MIEL1 (residues 1-140) (Arabidopsis thaliana) (UniProt Q8VZK0); assay: two-hybrid; BD Matchmaker system, yeast AH109; deletion constructs; beta-galactosidase activity in liquid culture with o-nitrophenyl-beta-D-galactopyranoside as substrate
T2 sequence: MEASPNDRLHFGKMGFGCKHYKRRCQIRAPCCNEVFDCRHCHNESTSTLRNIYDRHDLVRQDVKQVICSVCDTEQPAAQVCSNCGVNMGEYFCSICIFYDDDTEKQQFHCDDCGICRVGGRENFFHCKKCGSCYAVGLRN

[3] = target: T3, ARM REPEAT PROTEIN … WITH ABF2, GAL4 BD fusion (Arabidopsis thaliana) (UniProt B9DHT4); assay: two-hybrid; specificity test in yeast cells: GAL4 BD fusions of E3 Ub ligases co-expressed with GAL4 AD-MYB96; MIEL1 against other transcriptional regulators (Supplementary Fig. 6); read-out not stated
T3 sequence: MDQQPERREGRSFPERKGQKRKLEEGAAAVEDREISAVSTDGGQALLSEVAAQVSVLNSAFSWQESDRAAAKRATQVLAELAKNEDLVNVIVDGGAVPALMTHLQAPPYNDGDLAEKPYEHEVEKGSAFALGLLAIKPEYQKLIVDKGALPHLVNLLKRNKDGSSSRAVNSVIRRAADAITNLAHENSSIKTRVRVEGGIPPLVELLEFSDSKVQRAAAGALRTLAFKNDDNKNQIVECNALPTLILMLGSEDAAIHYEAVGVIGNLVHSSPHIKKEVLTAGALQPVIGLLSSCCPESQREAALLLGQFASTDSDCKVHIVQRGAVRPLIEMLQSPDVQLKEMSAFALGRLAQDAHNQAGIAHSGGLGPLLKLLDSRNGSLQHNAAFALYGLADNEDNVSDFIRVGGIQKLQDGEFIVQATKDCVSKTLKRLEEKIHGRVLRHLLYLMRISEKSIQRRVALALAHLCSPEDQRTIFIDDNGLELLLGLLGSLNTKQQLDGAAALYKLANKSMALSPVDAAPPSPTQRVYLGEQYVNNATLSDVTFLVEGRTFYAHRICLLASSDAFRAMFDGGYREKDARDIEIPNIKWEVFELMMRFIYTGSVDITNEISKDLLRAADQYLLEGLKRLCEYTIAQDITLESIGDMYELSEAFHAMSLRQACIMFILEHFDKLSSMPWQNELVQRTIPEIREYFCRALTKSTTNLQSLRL

[4] = target: T4, ABI3 …ON PROTEIN 2 (AIP2), GAL4 BD fusion (Arabidopsis thaliana) (UniProt Q8RXD3); assay: as above
T4 sequence: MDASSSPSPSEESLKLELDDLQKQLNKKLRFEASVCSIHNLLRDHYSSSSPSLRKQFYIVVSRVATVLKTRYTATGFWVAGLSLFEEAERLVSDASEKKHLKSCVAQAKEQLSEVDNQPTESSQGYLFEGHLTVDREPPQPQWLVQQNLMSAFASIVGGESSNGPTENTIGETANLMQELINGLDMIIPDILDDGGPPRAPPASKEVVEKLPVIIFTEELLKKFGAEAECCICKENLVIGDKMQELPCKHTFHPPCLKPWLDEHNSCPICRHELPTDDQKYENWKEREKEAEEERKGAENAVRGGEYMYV

[5] = target: T5, ATL43, GAL4 BD fusion (Arabidopsis thaliana) (UniProt Q5EAE9); assay: as above
T5 sequence: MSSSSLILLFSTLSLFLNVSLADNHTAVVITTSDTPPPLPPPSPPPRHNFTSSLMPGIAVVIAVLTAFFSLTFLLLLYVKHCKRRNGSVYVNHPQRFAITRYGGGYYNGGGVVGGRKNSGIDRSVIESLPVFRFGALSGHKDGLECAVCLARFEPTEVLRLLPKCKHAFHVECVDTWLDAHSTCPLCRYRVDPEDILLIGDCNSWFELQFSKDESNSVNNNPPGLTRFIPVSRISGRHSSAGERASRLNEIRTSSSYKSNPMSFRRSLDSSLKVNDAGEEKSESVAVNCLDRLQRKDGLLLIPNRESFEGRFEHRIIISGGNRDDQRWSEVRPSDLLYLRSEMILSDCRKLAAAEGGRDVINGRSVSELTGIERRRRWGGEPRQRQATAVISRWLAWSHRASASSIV

[6] = target: T6, XERICO, GAL4 BD fusion (Arabidopsis thaliana) (UniProt Q9SI09); assay: as above
T6 sequence: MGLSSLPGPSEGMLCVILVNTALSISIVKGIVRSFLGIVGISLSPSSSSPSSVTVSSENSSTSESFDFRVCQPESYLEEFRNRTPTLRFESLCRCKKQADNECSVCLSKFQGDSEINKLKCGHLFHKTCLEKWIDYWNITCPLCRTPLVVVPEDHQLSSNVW

[7] = target: T1, GAL4 DNA-binding domain (BD)-MIEL1 fusion (MYB30-… E3 LIGASE 1) (Arabidopsis thaliana); assay: as above
[8] = target: T7, CARBOXYL TERMINUS OF HSC70-… PROTEIN, GAL4 BD fusion (Arabidopsis thaliana) (UniProt Q9SRS9); assay: as above
T7 sequence: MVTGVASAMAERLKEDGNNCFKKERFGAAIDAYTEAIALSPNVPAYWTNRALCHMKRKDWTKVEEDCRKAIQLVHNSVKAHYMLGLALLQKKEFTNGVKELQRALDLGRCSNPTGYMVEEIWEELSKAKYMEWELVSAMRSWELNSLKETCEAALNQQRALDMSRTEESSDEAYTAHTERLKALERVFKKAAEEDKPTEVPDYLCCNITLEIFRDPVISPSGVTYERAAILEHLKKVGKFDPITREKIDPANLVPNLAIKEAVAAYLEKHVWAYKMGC

[9] = target: T8, MIEL1 fused to the N-terminal half of EYFP (Arabidopsis thaliana) (UniProt Q8VZK0); assay: split reporter; BiFC; partial EYFP fusions transiently co-expressed in Arabidopsis protoplasts; confocal fluorescence microscopy
T8 sequence: T1 sequence

[10] = target: T9, MIEL1-MYC (Arabidopsis thaliana) (UniProt Q8VZK0); assay: co-IP; MIEL1-MYC and MYB96-GFP transiently co-expressed in N. benthamiana leaves; extract precipitated with anti-MYC antibodies on Protein-A sepharose, 4 h at 4 °C; 25 mM Tris-HCl pH 7.5, 150 mM NaCl, 0.05% Nonidet P-40; blots with anti-MYC or anti-GFP
T9 sequence: T1 sequence

[11] = target: T1, GAL4 DNA-binding domain (BD)-MIEL1 fusion (MYB30-… E3 LIGASE 1) (Arabidopsis thaliana); assay: two-hybrid; BD Matchmaker system, yeast AH109; deletion constructs; beta-galactosidase activity in liquid culture with o-nitrophenyl-beta-D-galactopyranoside as substrate

binding [1]: binds
binding [2]: binds
binding [3]: no binding
binding [4]: no binding
binding [5]: no binding
binding [6]: no binding
binding [7]: binds
binding [8]: no binding
Substance: GAL4 activation domain (AD)-MYB96 fusion, full-size MYB96 (from UniProt Q24JK1 1-352)

binding [9]: binds
Substance: MYB96 fused to the C-terminal half of EYFP (from UniProt Q24JK1 1-352)

binding [10]: binds
Substance: MYB96-GFP (from UniProt Q24JK1 1-352)

binding [11]: binds
Substance: N-terminal region of MYB96 (residues 1-143) (from UniProt Q24JK1 1-143) (domain or fragment)
